Laboratory results taken from PMC8222394 (Nature Communications, 2021).
Values joined by “and” are separate entries in the source; they are usually repeats but may differ in a detail not shown here. Equal values may be shown once.

Molecular target: TMPRSS2-HiBiT (Homo sapiens, UniProt O15393)
Test: Cell-based proline treatment, TMPRSS2-HiBiT signal in Beas-2B cells
Conditions: replicates, listed as HFG

Sequence of TMPRSS2-HiBiT (O15393 whole entry): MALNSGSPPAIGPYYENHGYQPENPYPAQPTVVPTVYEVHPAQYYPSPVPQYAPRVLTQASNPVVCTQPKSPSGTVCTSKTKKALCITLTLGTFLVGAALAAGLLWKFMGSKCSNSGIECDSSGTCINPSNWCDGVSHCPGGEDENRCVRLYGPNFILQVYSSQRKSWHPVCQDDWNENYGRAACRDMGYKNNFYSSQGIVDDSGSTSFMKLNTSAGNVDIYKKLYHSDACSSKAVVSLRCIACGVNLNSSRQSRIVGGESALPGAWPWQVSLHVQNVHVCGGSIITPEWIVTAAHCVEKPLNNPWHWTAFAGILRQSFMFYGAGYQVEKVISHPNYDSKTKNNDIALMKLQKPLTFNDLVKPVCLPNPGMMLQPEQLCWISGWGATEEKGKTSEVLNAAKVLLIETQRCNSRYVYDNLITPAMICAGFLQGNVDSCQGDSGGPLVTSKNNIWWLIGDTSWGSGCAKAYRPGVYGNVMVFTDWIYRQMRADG

Question: Which “TMPRSS2-HiBiT signal (raw values)” value (HFG 1.235e-8 M, 1mM Proline) does the source give for O=C(CC1NCCCC1O)Cn1cnc2cc(Br)c(Cl)cc2c1=O (stereo not shown) [Halofuginone] here?
Answer: The value was 520631 and 433215 and 519995.

Question: What about the “TMPRSS2-HiBiT signal (raw values)” value (HFG 1.235e-8 M, No Proline) of the same compound?
Answer: Its value is 507005 and 340476 and 451268.

Question: And the “TMPRSS2-HiBiT signal (raw values)” value (HFG 3.704e-8 M, 1mM Proline)?
Answer: The value was 434217 and 395431 and 483610.

Question: What about the “TMPRSS2-HiBiT signal (raw values)” value (HFG 3.704e-8 M, No Proline) of the same compound?
Answer: The value was 603827 and 463851 and 425233.

Question: What about the “TMPRSS2-HiBiT signal (raw values)” value (HFG 1.111e-7 M, 1mM Proline) of the same compound?
Answer: Its value is 370404 and 553480 and 490249.

Question: What about the “TMPRSS2-HiBiT signal (raw values)” value (HFG 3.333e-7 M, 1mM Proline) of the same compound?
Answer: Its value is 362092 and 264512 and 406364.

Question: What about the “TMPRSS2-HiBiT signal (raw values)” value (HFG 3.333e-7 M, No Proline) of the same compound?
Answer: Its value is 2402 and 2183 and 3253.
